# From the supplement of paper PMC8728848
# The other results are listed elsewhere or left out.
# Key:
# Assay in all cases: glycan array binding signal (z-score within array); higher = stronger binding
# Conditions in all cases: glycan notation: IUPAC condensed, linker removed
# [1] = target: Gal(b1-4)GalNAc(b1-3)[Fuc(a1-2)]Gal(b1-4)GlcNAc
# In short: (§1)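 Glycan array data were curated from 3228 arrays in the Consortium for Functional Glycomics database and kept only where the protein sequence was available. Glycan names were converted to IUPAC-condensed notation, and columns mapping to the same glycan were averaged. The binding signal is a within-array Z-score, averaged across arrays of the same protein sequence at different concentrations or buffers and across linkers. Negative Z-scores can be read as non-binding.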
# Gal(b1-4)Glc = target: Gal(b1-4)Glc
# In short: as §1
# Gal(b1-4)Glc6S = target: Gal(b1-4)Glc6S
# In short: as §1
# Gal(b1-4)GlcNAc = target: Gal(b1-4)GlcNAc
# In short: as §1
# [2] = target: Gal(b1-4)GlcNAc(a1-6)Gal(b1-4)GlcNAc
# In short: as §1
# [3] = target: Gal(b1-4)GlcNAc(b1-2)Man(a1-3)Man(b1-4)GlcNAc(b1-4)GlcNAc
# In short: as §1
# [4] = target: Gal(b1-4)GlcNAc(b1-2)Man(a1-3)[Gal(b1-4)GlcNAc(b1-2)Man(a1-6)]Man(b1-4)GlcNAc(b1-4)GlcNAc
# In short: as §1
# [5] = target: Gal(b1-4)GlcNAc(b1-2)Man(a1-3)[Gal(b1-4)GlcNAc(b1-2)Man(a1-6)]Man(b1-4)GlcNAc(b1-4)[Fuc(a1-6)]GlcNAc
# In short: as §1
# [6] = target: Gal(b1-4)GlcNAc(b1-2)Man(a1-3)[Gal(b1-4)GlcNAc(b1-2)][GlcNAc(b1-4)]Man(b1-4)GlcNAc(b1-4)GlcNAc
# In short: as §1
# [7] = target: Gal(b1-4)GlcNAc(b1-2)Man(a1-3)[GlcNAc(b1-2)Man(a1-6)]Man(b1-4)GlcNAc(b1-4)GlcNAc
# In short: as §1
# [8] = target: Gal(b1-4)GlcNAc(b1-2)Man(a1-3)[Man(a1-6)]Man(b1-4)GlcNAc(b1-4)GlcNAc
# In short: as §1
# [9] = target: Gal(b1-4)GlcNAc(b1-2)Man(a1-6)Man(b1-4)GlcNAc(b1-4)GlcNAc
# In short: as §1
# [10] = target: Gal(b1-4)GlcNAc(b1-2)Man(a1-6)[GlcNAc(b1-2)Man(a1-3)]Man(b1-4)GlcNAc(b1-4)GlcNAc
# In short: as §1
# [11] = target: Gal(b1-4)GlcNAc(b1-2)Man(a1-6)[Man(a1-3)]Man(b1-4)GlcNAc(b1-4)GlcNAc
# In short: as §1
# [12] = target: Gal(b1-4)GlcNAc(b1-2)[Gal(b1-4)GlcNAc(b1-4)]Man(a1-3)[Gal(b1-4)GlcNAc(b1-2)Man(a1-6)]Man(b1-4)GlcNAc(b1-4)GlcNAc
# In short: as §1
# [13] = target: Gal(b1-4)GlcNAc(b1-2)[Gal(b1-4)GlcNAc(b1-4)]Man(a1-3)[Gal(b1-4)GlcNAc(b1-2)[Gal(b1-4)GlcNAc(b1-6)]Man(a1-6)]Man(b1-4)GlcNAc(b1-4)GlcNAc
# In short: as §1
# [14] = target: Gal(b1-4)GlcNAc(b1-2)[Gal(b1-4)GlcNAc(b1-4)]Man(a1-3)[GlcNAc(b1-4)][Gal(b1-4)GlcNAc(b1-2)Man(a1-6)]Man(b1-4)GlcNAc(b1-4)GlcNAc
# In short: as §1
# [15] = target: Gal(b1-4)GlcNAc(b1-2)[Gal(b1-4)GlcNAc(b1-6)]Man(a1-6)[GlcNAc(b1-4)][Gal(b1-4)GlcNAc(b1-2)Man(a1-3)]Man(b1-4)GlcNAc(b1-4)GlcNAc
# In short: as §1
# [16] = target: Gal(b1-4)GlcNAc(b1-3)Gal(b1-3)GlcNAc
# In short: as §1
# [17] = target: Gal(b1-4)GlcNAc(b1-3)Gal(b1-4)Glc
# In short: as §1
# [18] = target: Gal(b1-4)GlcNAc(b1-3)Gal(b1-4)GlcNAc
# In short: as §1
# [19] = target: Gal(b1-4)GlcNAc(b1-3)Gal(b1-4)GlcNAc(b1-3)Gal(b1-4)GlcNAc
# In short: as §1
# [20] = target: Gal(b1-4)GlcNAc(b1-3)Gal(b1-4)[Fuc(a1-3)GlcNAc(b1-6)]Gal(b1-4)Glc
# In short: as §1
# [21] = target: Gal(b1-4)GlcNAc(b1-3)Gal(b1-4)[Fuc(a1-3)]GlcNAc(b1-3)Gal(b1-4)[Fuc(a1-3)]GlcNAc
# In short: as §1
# [22] = target: Gal(b1-4)GlcNAc(b1-3)GalNAc
# In short: as §1
# [23] = target: Gal(b1-4)GlcNAc(b1-3)[Gal(b1-4)GlcNAc(b1-6)]Gal(b1-4)GlcNAc
# In short: as §1
# [24] = target: Gal(b1-4)GlcNAc(b1-3)[Gal(b1-4)GlcNAc(b1-6)]GalNAc
# In short: as §1
# [25] = target: Gal(b1-4)GlcNAc(b1-3)[GlcNAc(b1-6)]Gal(b1-4)GlcNAc
# In short: as §1
# [26] = target: Gal(b1-4)GlcNAc(b1-6)Gal(b1-4)GlcNAc
# In short: as §1
# [27] = target: Gal(b1-4)GlcNAc(b1-6)GalNAc
# In short: as §1
# [28] = target: Gal(b1-4)GlcNAc(b1-6)[Gal(b1-3)]GalNAc
# In short: as §1
# Gal(b1-6)Gal = target: Gal(b1-6)Gal
# In short: as §1
# Gal3S(b1-3)GalNAc = target: Gal3S(b1-3)GalNAc
# In short: as §1
# Gal3S(b1-3)GlcNAc = target: Gal3S(b1-3)GlcNAc
# In short: as §1
# [29] = target: Gal3S(b1-3)[Fuc(a1-4)]GlcNAc
# In short: as §1
# Gal3S(b1-4)Glc = target: Gal3S(b1-4)Glc
# In short: as §1
# Gal3S(b1-4)Glc6S = target: Gal3S(b1-4)Glc6S
# In short: as §1
# Gal3S(b1-4)GlcNAc = target: Gal3S(b1-4)GlcNAc
# In short: as §1
# Gal3S(b1-4)GlcNAc6S = target: Gal3S(b1-4)GlcNAc6S
# In short: as §1
# [30] = target: Gal3S(b1-4)[Fuc(a1-3)]Glc
# In short: as §1
# [31] = target: Gal3S(b1-4)[Fuc(a1-3)]Glc6S
# In short: as §1
# Gal3S4S(b1-4)GlcNAc = target: Gal3S4S(b1-4)GlcNAc
# In short: as §1
# Gal3S6S(b1-4)GlcNAc = target: Gal3S6S(b1-4)GlcNAc
# In short: as §1
# Gal3S6S(b1-4)GlcNAc6S = target: Gal3S6S(b1-4)GlcNAc6S
# In short: as §1
# Gal4S(b1-4)GlcNAc = target: Gal4S(b1-4)GlcNAc
# In short: as §1
binder,measurement,setting,value
"Tap1 (Sordaria macrospora), Q50IV4 (protein) MSHHHHHHHHYTLHLRLINDTSDTLTLVEQTSWWGKNTIWSQVRSTGVHVLSMAASGSSGMLRFQTSKGDFFAVAVGVHNYKRWCDVLVDTADEAPLTKLHPKYYDDKDAKYQALWAQASEFEAKSKSGKTVRIKFYQADGNVLRATVEYL",glycan array binding signal (z-score),[1],-0.229
same,glycan array binding signal (z-score),Gal(b1-4)Glc,-0.217
same,glycan array binding signal (z-score),Gal(b1-4)Glc6S,-0.214
same,glycan array binding signal (z-score),Gal(b1-4)GlcNAc,-0.237
same,glycan array binding signal (z-score),[2],-0.253
same,glycan array binding signal (z-score),[3],-0.2
same,glycan array binding signal (z-score),[4],-0.224
same,glycan array binding signal (z-score),[5],-0.213
same,glycan array binding signal (z-score),[6],-0.232
same,glycan array binding signal (z-score),[7],-0.2
same,glycan array binding signal (z-score),[8],-0.084
same,glycan array binding signal (z-score),[9],-0.227
same,glycan array binding signal (z-score),[10],-0.245
same,glycan array binding signal (z-score),[11],-0.206
same,glycan array binding signal (z-score),[12],-0.259
same,glycan array binding signal (z-score),[13],-0.243
same,glycan array binding signal (z-score),[14],0.077
same,glycan array binding signal (z-score),[15],-0.22
same,glycan array binding signal (z-score),[16],-0.239
same,glycan array binding signal (z-score),[17],-0.235
same,glycan array binding signal (z-score),[18],-0.242
same,glycan array binding signal (z-score),[19],-0.259
same,glycan array binding signal (z-score),[20],-0.249
same,glycan array binding signal (z-score),[21],-0.206
same,glycan array binding signal (z-score),[22],0.987
same,glycan array binding signal (z-score),[23],-0.264
same,glycan array binding signal (z-score),[24],-0.246
same,glycan array binding signal (z-score),[25],-0.251
same,glycan array binding signal (z-score),[26],-0.224
same,glycan array binding signal (z-score),[27],-0.217
same,glycan array binding signal (z-score),[28],1.08
same,glycan array binding signal (z-score),Gal(b1-6)Gal,-0.203
same,glycan array binding signal (z-score),Gal3S(b1-3)GalNAc,5.01
same,glycan array binding signal (z-score),Gal3S(b1-3)GlcNAc,-0.096
same,glycan array binding signal (z-score),[29],-0.246
same,glycan array binding signal (z-score),Gal3S(b1-4)Glc,-0.222
same,glycan array binding signal (z-score),Gal3S(b1-4)Glc6S,-0.208
same,glycan array binding signal (z-score),Gal3S(b1-4)GlcNAc,-0.214
same,glycan array binding signal (z-score),Gal3S(b1-4)GlcNAc6S,-0.208
same,glycan array binding signal (z-score),[30],-0.195
same,glycan array binding signal (z-score),[31],-0.18
same,glycan array binding signal (z-score),Gal3S4S(b1-4)GlcNAc,-0.217
same,glycan array binding signal (z-score),Gal3S6S(b1-4)GlcNAc,-0.232
same,glycan array binding signal (z-score),Gal3S6S(b1-4)GlcNAc6S,-0.22
same,glycan array binding signal (z-score),Gal4S(b1-4)GlcNAc,-0.232
